According to publication PMC4242493:
The list shows a part of the results. The list includes weakly bound sequences.

target: MaxL homodimer (UniProt P61244); assay: universal protein-binding microarray (PBM); settings: PBS-based mixture, 10 nM His-tagged protein dimer, 2% milk, 200 ng/uL BSA, 50 ng/uL salmon testes DNA, 0.02% TX-100; detection with Alexa 488 anti-His …; high values mean tight binding; most listed sequences are background and not binding sites; double strand, one strand shown
UniProt P61244, sequence (P61244 whole entry): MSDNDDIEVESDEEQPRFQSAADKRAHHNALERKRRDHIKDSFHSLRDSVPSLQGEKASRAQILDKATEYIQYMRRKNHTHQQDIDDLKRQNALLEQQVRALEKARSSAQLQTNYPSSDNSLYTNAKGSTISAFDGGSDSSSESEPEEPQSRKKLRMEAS

Sequence | binding signal (normalized occupancy)
ACAATAAC | 0.0762
GGTGGGTA | 0.0949
GAATTCCC | 0.0736
ATCGGGCA | 0.0728
AGCGCTGA | 0.0686
CCCATGAC | 0.0853
ACGATGCA | 0.0775
AAGTATGA | 0.082
ATCAGTTA | 0.0738
GGGGGTTA | 0.0813
TAACCTTA | 0.0726
CGGTAACG | 0.0685
TGACGGAA | 0.0786
CATTAGAA | 0.0752
AACGTGCG | 0.108
CGAAACAA | 0.0702
AAATCGTC | 0.0678
CGTGCTAG | 0.0952
CCCGTATC | 0.0739
AAAGGTCC | 0.071
CATGAAAC | 0.0762
GACTAGGA | 0.0732

Sequence | binding signal (normalized occupancy)
ACAAAGTG | 0.0721
CATCTCCG | 0.0747
CTCCCAGA | 0.0739
AACCTATA | 0.0782
ACCTGTAG | 0.0736
AATTGCCT | 0.0718
AATTGGGC | 0.0747
AGAGTTGA | 0.0682
AAGGGTAA | 0.0788
AAAACCTT | 0.0713
AGTGCTGG | 0.0689
AAAATTCT | 0.0763
AGAAGCTG | 0.0694
CGTTAAGA | 0.0717
CTAAGAAA | 0.0728
AAAAAAGG | 0.0707
ATGCACTG | 0.0781
ACTCTCTG | 0.0705
GGCTTTTA | 0.0758
TCAGTCGA | 0.0692
ACGTACCT | 0.0783
AGTTCCCG | 0.074

Sequence | binding signal (normalized occupancy)
ACCCTATA | 0.0812
CCACTACA | 0.0783
GGGTATAC | 0.0791
GGCGCGCA | 0.0732
ATGGCTGA | 0.0827
ACAGCAGT | 0.0689
AAGTAGCA | 0.0743
GCAGCATA | 0.0824
ATGCACCA | 0.0799
CGTAACCA | 0.0757
GTCCGGGA | 0.0696
ACACCAAT | 0.0759
AAATTACG | 0.0788
AAACATAT | 0.0797
ACTCGGCT | 0.065
CTGCGTCC | 0.0696
AATCGTGG | 0.0832
ACTTGCTG | 0.0711
CTACTCTC | 0.0754
CTCAGAGC | 0.0747
AGAATACA | 0.0787
ACTTAAGG | 0.0739

Sequence | binding signal (normalized occupancy)
ATCCACAG | 0.078
CCACTCTC | 0.075
GCGGTTAA | 0.072
CTTTGACC | 0.0868
TATGCACA | 0.0883
CGCGCCCA | 0.0739
GAGAGTAC | 0.073
CCACCTCG | 0.0794
GCCGCTAA | 0.0662
ACTTTAGG | 0.073
AGCAGCCA | 0.0738
AGGTGGCA | 0.082
CACTTTGC | 0.0696
CCAACTGC | 0.0709
AGCCCGTG | 0.0746
CAAGCATG | 0.105
ACCACCTG | 0.106
CATCCTGA | 0.0746
GTCCGTGA | 0.0756
ACTTACCA | 0.0778
